In FireProtDB (doi:10.1093/protein/gzh076):

Conditions: Homo sapiens, pH 7.3, H3PO4 25 mM, reversible: Yes; for Tm / unfolding enthalpy (van 't Hoff): Thermal

With “Fibroblast growth factor 1 wild type (sequence left out)” the denaturant m value (20.15 °C, GdnHCl, Fluorescence) was 4.87 kcal/mol/M, the “denaturant midpoint (higher = more stable)” value (20.15 °C, GdnHCl, Fluorescence) was 1.13 M and the unfolding free energy (20.15 °C, GdnHCl, Fluorescence) was 5.53 kcal/mol. For the same substance, the Tm (CD) was 40.7 °C, the “unfolding enthalpy (van 't Hoff)” value (CD) was 67.7 kcal/mol and the Tm (Fluorescence) was 39.8 °C. The “unfolding enthalpy (van 't Hoff)” value (Fluorescence) was 66.2 kcal/mol.
